# Results reported in the BET-seq Pho4 binding data (Le et al. 2018).
# This is one part of the list. These are noisy estimates, calculated here from bound and input reads.
# Molecular target: T1, Pho4 (S. cerevisiae) (UniProt P07270)
# T1 sequence: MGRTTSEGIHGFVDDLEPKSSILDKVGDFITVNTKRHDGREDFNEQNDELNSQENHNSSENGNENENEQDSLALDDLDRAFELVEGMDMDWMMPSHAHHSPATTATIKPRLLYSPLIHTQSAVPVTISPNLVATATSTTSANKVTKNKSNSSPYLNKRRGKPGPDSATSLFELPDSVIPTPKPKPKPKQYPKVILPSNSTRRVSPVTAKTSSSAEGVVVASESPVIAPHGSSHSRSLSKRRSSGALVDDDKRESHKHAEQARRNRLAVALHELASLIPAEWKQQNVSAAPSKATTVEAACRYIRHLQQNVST
# Test: relative binding free energy (BET-seq); higher = weaker binding
# Settings: reference: library average
row,Sequence,relative binding free energy
1,AGTTACACGTGTGCGG,0.06 kcal/mol
2,GCGTTCACGTGGTGGT,0.32 kcal/mol
3,GTTTTCACGTGGGTGT,0.2 kcal/mol
4,TTAGTCACGTGAGCGG,0.17 kcal/mol
5,TGTGACACGTGGGCGT,-0.18 kcal/mol
6,AGGTTCACGTGGCGGG,0.23 kcal/mol
7,ATTGCCACGTGTGGGC,0.05 kcal/mol
8,CAGTCCACGTGTTGTT,0.12 kcal/mol
9,AGGTGCACGTGGCTTT,-0.08 kcal/mol
10,GGGGGCACGTGTTGGT,0.02 kcal/mol
11,TGTTCCACGTGAGTGC,0.24 kcal/mol
12,AGTTCCACGTGGCTGG,0.06 kcal/mol
13,GTGAGCACGTGGTTAG,-0.13 kcal/mol
14,TGGGCCACGTGTTAGG,0.02 kcal/mol
15,TCTAACACGTGGGTGG,-0.09 kcal/mol
16,TGAACCACGTGGTGTA,-0.05 kcal/mol
17,AGTAACACGTGAGTTT,0.28 kcal/mol
18,CTTTGCACGTGTTGGA,0 kcal/mol
19,CGAGGCACGTGGACGG,-0.17 kcal/mol
20,GTGAACACGTGAGGGG,0.38 kcal/mol
21,GTTTGCACGTGCTGTT,0.03 kcal/mol
22,CGTAGCACGTGTTGGA,-0.1 kcal/mol
23,GTGGCCACGTGGATGT,0.03 kcal/mol
24,TACATCACGTGGTGAT,0.09 kcal/mol
25,GTTCTCACGTGAGATT,0.43 kcal/mol
26,CGTGACACGTGGTTTG,-0.01 kcal/mol

row,Sequence,relative binding free energy
1,ATTGGCACGTGTCGAG,0.04 kcal/mol
2,AGCTGCACGTGTGCGT,0.05 kcal/mol
3,CGTTTCACGTGGGTGA,0.17 kcal/mol
4,AAGGGCACGTGACTAG,0.1 kcal/mol
5,GGGTTCACGTGAAGTG,0.33 kcal/mol
6,TGTGCCACGTGGGGTC,-0.21 kcal/mol
7,AAGTTCACGTGTGTTA,0.17 kcal/mol
8,GGGTTCACGTGGGAGT,0.22 kcal/mol
9,TATCTCACGTGGTAAG,0.2 kcal/mol
10,TTTGACACGTGAATTG,0.3 kcal/mol
11,GTATCCACGTGGTTTG,0.05 kcal/mol
12,AGTTGCACGTGAGTTG,0.24 kcal/mol
13,CGATTCACGTGTTATG,0.36 kcal/mol
14,GAATACACGTGTGGGG,0.1 kcal/mol
15,GTTGGCACGTGTTTCT,-0.04 kcal/mol
16,GAAGTCACGTGAGTTT,0.3 kcal/mol
17,CTGGCCACGTGGGGGA,-0.18 kcal/mol
18,GGGTTCACGTGGCTAT,0.25 kcal/mol
19,GGTGCCACGTGTAGTA,-0.1 kcal/mol
20,TAGTACACGTGTGGTA,0.12 kcal/mol
21,GCGGGCACGTGCTGAG,-0.09 kcal/mol
22,GTATTCACGTGGATGC,0.17 kcal/mol
23,TGATGCACGTGGTGTG,-0.09 kcal/mol
24,GTGATCACGTGTCCGT,0.22 kcal/mol
25,GGCATCACGTGGTGAT,0.06 kcal/mol
26,GTATTCACGTGCGAGT,0.31 kcal/mol

row,Sequence,relative binding free energy
1,TTTTTCACGTGTAGTA,0.24 kcal/mol
2,CTGGTCACGTGTAGGC,0.01 kcal/mol
3,CTTTTCACGTGAGGAG,0.51 kcal/mol
4,TGTGTCACGTGAGCAG,0.2 kcal/mol
5,TGTAGCACGTGATATG,-0.01 kcal/mol
6,AATTACACGTGGTAGT,0.02 kcal/mol
7,TAGGGCACGTGTTGCA,-0.29 kcal/mol
8,AGTGACACGTGTAGGT,-0.02 kcal/mol
9,CGGTTCACGTGAAGGT,0.23 kcal/mol
10,TTGTCCACGTGTATTG,-0.05 kcal/mol
11,AGTCACACGTGGTTTG,-0.02 kcal/mol
12,GCGATCACGTGCGGGT,0.1 kcal/mol
13,GGTGTCACGTGGAGAC,0.16 kcal/mol
14,GTCTTCACGTGGCGAT,0.43 kcal/mol
15,TGCCTCACGTGTGTTT,0.19 kcal/mol
16,AGAAACACGTGGGGAT,-0.09 kcal/mol
17,GACTGCACGTGGCGGT,0 kcal/mol
18,GGTCTCACGTGCGTGT,0.07 kcal/mol
19,GTCGGCACGTGTTGCG,0.08 kcal/mol
20,AGGTGCACGTGGGATC,-0.14 kcal/mol
21,CTAATCACGTGATGTG,0.25 kcal/mol
22,GTACTCACGTGGTCGG,0.22 kcal/mol
23,CGGTTCACGTGTTTAG,0.24 kcal/mol
24,TGGTTCACGTGGAGGC,0.32 kcal/mol
25,GTTATCACGTGATGGA,0.42 kcal/mol
26,TTTATCACGTGGCCGT,0.12 kcal/mol

row,Sequence,relative binding free energy
1,TGCTGCACGTGACGGG,0.08 kcal/mol
2,TATGTCACGTGTACGA,0.04 kcal/mol
3,TCAGGCACGTGGATTG,0.02 kcal/mol
4,TGGTTCACGTGGTGAC,0.13 kcal/mol
5,TGTTCCACGTGGCGGT,-0.16 kcal/mol
6,AGTTACACGTGAGCTG,0.28 kcal/mol
7,CTGATCACGTGTATTT,0.35 kcal/mol
8,AATTTCACGTGGTTTT,0.33 kcal/mol
9,AGTCGCACGTGCGGAG,0.01 kcal/mol
10,GATTACACGTGTTGGG,0.21 kcal/mol
11,TGACTCACGTGTTTAG,0.15 kcal/mol
12,GGGTTCACGTGGTGGA,0.27 kcal/mol
13,AACGGCACGTGGGGAA,-0.16 kcal/mol
14,TGGTGCACGTGTGGGT,0.06 kcal/mol
15,TTATACACGTGCGCGT,-0.05 kcal/mol
16,AGGTTCACGTGGGTGA,0.16 kcal/mol
17,ACGCTCACGTGGGGTG,-0.04 kcal/mol
18,GTTTGCACGTGAAGGC,0.32 kcal/mol
19,AGCGTCACGTGTGTAT,0.14 kcal/mol
20,AGTTTCACGTGATAGA,0.38 kcal/mol
21,AAGGTCACGTGCACGG,0.11 kcal/mol
22,GTAGGCACGTGAAGGC,0.1 kcal/mol
23,TAGGTCACGTGGGAAC,0.05 kcal/mol
24,GGCTGCACGTGGCCGG,-0.05 kcal/mol
25,ATTGTCACGTGCCTGG,0.07 kcal/mol
26,GGGGCCACGTGGGAGG,-0.19 kcal/mol

row,Sequence,relative binding free energy
1,TTTGTCACGTGGTTGT,0.11 kcal/mol
2,TTAGTCACGTGGTAGT,0.05 kcal/mol
3,TACATCACGTGGTATT,0.02 kcal/mol
4,TATCGCACGTGGCTGG,-0.02 kcal/mol
5,TATGACACGTGGGCCG,-0.02 kcal/mol
6,AATTTCACGTGTGATG,0.38 kcal/mol
7,ATGCGCACGTGGTCGG,-0.26 kcal/mol
8,GAATTCACGTGGTTGT,0.36 kcal/mol
9,AGAGTCACGTGGGTGG,-0.08 kcal/mol
10,GCATACACGTGGGGGA,0.01 kcal/mol
11,CGGTACACGTGTTTGA,0.06 kcal/mol
12,TCAGGCACGTGGTGTG,-0.25 kcal/mol
13,GTTAGCACGTGAATTT,0.32 kcal/mol
14,GTTTTCACGTGAGGCC,0.37 kcal/mol
15,CGGTACACGTGACTGG,0.2 kcal/mol
16,TGTTGCACGTGATAAG,0.18 kcal/mol
17,TCACTCACGTGTTGTT,0.16 kcal/mol
18,TGCTTCACGTGGTGAG,0.16 kcal/mol
19,GGCCTCACGTGGAGTG,0.2 kcal/mol
20,ATGTACACGTGACGGG,0.18 kcal/mol
21,ATTGGCACGTGGGTCC,-0.09 kcal/mol
22,GGTACCACGTGCTTGG,-0.04 kcal/mol
23,TATTACACGTGGGTAG,-0.05 kcal/mol
24,GCGTTCACGTGGGTTG,0.16 kcal/mol
25,TTTGTCACGTGGGCTA,-0.01 kcal/mol
26,GTAGACACGTGATTGT,0.28 kcal/mol

row,Sequence,relative binding free energy
1,CGAGTCACGTGGTGAA,0.08 kcal/mol
2,TACGTCACGTGGTCTG,0.05 kcal/mol
3,TATGTCACGTGATGCT,0.11 kcal/mol
4,GTACTCACGTGTTTAG,0.19 kcal/mol
5,TCGGGCACGTGATATT,-0.03 kcal/mol
6,GGAAGCACGTGGGAGT,-0.2 kcal/mol
7,GTACCCACGTGGTTGG,-0.04 kcal/mol
8,GTTAGCACGTGCGGCG,-0.13 kcal/mol
9,TTCATCACGTGTGCGG,0.18 kcal/mol
10,TGGTTCACGTGCGAGC,0.32 kcal/mol
11,ATATGCACGTGACAGG,-0.03 kcal/mol
12,ATGTACACGTGTGGAA,0.07 kcal/mol
13,GGGCGCACGTGAGGGT,0.21 kcal/mol
14,TTGGTCACGTGATACA,0.16 kcal/mol
15,TGGTGCACGTGCGAAA,0.11 kcal/mol
16,GGGTCCACGTGTTGGT,0.09 kcal/mol
17,CTTGGCACGTGGTAGT,-0.18 kcal/mol
18,TAGTTCACGTGTGCGG,0.36 kcal/mol
19,GGATTCACGTGTGGGA,0.35 kcal/mol
20,TGTAGCACGTGTTTAT,-0.03 kcal/mol
21,TAATACACGTGTAGTT,0.04 kcal/mol
22,GTTTTCACGTGACGAG,0.43 kcal/mol
23,TGGTTCACGTGGCTGT,0.26 kcal/mol
24,AATCGCACGTGTTTTT,-0.06 kcal/mol
25,TAATTCACGTGTAAGT,0.15 kcal/mol
26,GTTAACACGTGCTTTG,0 kcal/mol

row,Sequence,relative binding free energy
1,GATAGCACGTGGTAAT,-0.02 kcal/mol
2,ATTGCCACGTGGTTGA,-0.03 kcal/mol
3,TATGGCACGTGAGTCG,0.07 kcal/mol
4,GTGTTCACGTGGCAGT,0.26 kcal/mol
5,GAGGGCACGTGGTATT,-0.13 kcal/mol
6,TTGGCCACGTGGGCGA,-0.18 kcal/mol
7,TTGTACACGTGAGTCG,0.11 kcal/mol
8,TCGGGCACGTGATTGG,0.05 kcal/mol
9,TTGGGCACGTGCATGA,0.01 kcal/mol
10,AGTTTCACGTGATGGA,0.39 kcal/mol
11,GGTGTCACGTGTACGT,0.14 kcal/mol
12,GTATTCACGTGGGACA,0.21 kcal/mol
13,TTGAGCACGTGATAAG,0 kcal/mol
14,TGGCTCACGTGATGGT,0.4 kcal/mol
15,ATCAGCACGTGTTTGA,-0.08 kcal/mol
16,GGGTTCACGTGAACAT,0.45 kcal/mol
17,TATGTCACGTGTCGTC,0.18 kcal/mol
18,CTATGCACGTGGTGCG,-0.19 kcal/mol
19,TTTGCCACGTGTGATT,0.04 kcal/mol
20,AAACGCACGTGGGTTG,-0.32 kcal/mol
21,TGCAACACGTGTGGGC,0.02 kcal/mol
22,AGTCACACGTGGGGTG,-0.09 kcal/mol
23,CAGGTCACGTGGCGGG,0.03 kcal/mol
24,TCGATCACGTGGGTTT,0.02 kcal/mol
25,GGAGGCACGTGTTTTT,-0.06 kcal/mol
26,TGTTACACGTGCGTCT,0.01 kcal/mol

row,Sequence,relative binding free energy
1,TGGTTCACGTGTATCG,0.39 kcal/mol
2,ATAGGCACGTGTCATT,-0.06 kcal/mol
3,TTATCCACGTGGTGGG,-0.12 kcal/mol
4,TGGTACACGTGCTTGT,-0.05 kcal/mol
5,CGAAGCACGTGGTTGA,0.02 kcal/mol
6,ATAATCACGTGAGGAG,0.25 kcal/mol
7,AGAGGCACGTGGAGTA,-0.17 kcal/mol
8,ATATGCACGTGTGAGC,-0.02 kcal/mol
9,TTTGGCACGTGGTGGA,-0.07 kcal/mol
10,TTGTACACGTGTGTCG,0.25 kcal/mol
11,GAACGCACGTGTGTGT,-0.16 kcal/mol
12,GGCTTCACGTGGGACG,0.17 kcal/mol
13,GAGTGCACGTGAAGGT,0.21 kcal/mol
14,CAAATCACGTGGGGTA,0.15 kcal/mol
15,GTACACACGTGGGATT,0.03 kcal/mol
16,ATTTACACGTGGTTCT,0.08 kcal/mol
17,TCGTGCACGTGTAGTC,0.02 kcal/mol
18,GGATTCACGTGTCGTG,0.17 kcal/mol
19,CGAGTCACGTGAGTGT,0.26 kcal/mol
20,TGTCACACGTGGATTT,0.12 kcal/mol
21,GTTGACACGTGTGATA,0.15 kcal/mol
22,CTTGACACGTGTTTGA,-0.07 kcal/mol
23,TACTTCACGTGGGGGG,0.16 kcal/mol
24,TTTGGCACGTGTACAT,-0.04 kcal/mol
25,CTTGGCACGTGTAGCG,-0.14 kcal/mol
26,CTTAACACGTGTTTTT,0.05 kcal/mol

row,Sequence,relative binding free energy
1,TGTTACACGTGTGATT,0.3 kcal/mol
2,GGGTACACGTGAGGTT,0.29 kcal/mol
3,CAGGGCACGTGAGTAG,-0.01 kcal/mol
4,TGGACCACGTGTGGGA,0.05 kcal/mol
5,GGGGACACGTGATTAA,0.12 kcal/mol
6,TAAGGCACGTGTTGTG,-0.07 kcal/mol
7,TTGTTCACGTGGCTTG,0.31 kcal/mol
8,AGGAGCACGTGAGTGA,-0.03 kcal/mol
9,AGGTACACGTGGTGTT,-0.02 kcal/mol
10,TTCGTCACGTGCGAGG,0.16 kcal/mol
11,TAGTGCACGTGATGGC,0.14 kcal/mol
12,GTATTCACGTGCTGCT,0.17 kcal/mol
13,GACGTCACGTGTGGTG,0.27 kcal/mol
14,CGTAACACGTGGGGGC,-0.04 kcal/mol
15,TGGTCCACGTGGAGTA,-0.11 kcal/mol
16,CAAGGCACGTGTCGGT,-0.03 kcal/mol
17,TGGAACACGTGCGGTG,0.03 kcal/mol
18,GGCGACACGTGAGGGG,0.22 kcal/mol
19,AATGACACGTGATTGT,0.15 kcal/mol
20,TAAATCACGTGTGGGA,0.18 kcal/mol
21,GATTTCACGTGTCGAG,0.41 kcal/mol
22,GTGTACACGTGAAGAG,0.29 kcal/mol
